Read-outs that look alike come from different tables or passages of the source. No constants are given. Whether binding was seen depends on the method and setting. For some assays here: Binding seen in cells or lysates may run through a third protein. Some binding calls cover weakened binding; strength is not graded here. Sequences can lack the tags named with a protein.
T1: OsbZIP47ΔC-cYFP fusion protein (rice (Oryza sativa)) (UniProt Q5Z6N9)
T1 sequence: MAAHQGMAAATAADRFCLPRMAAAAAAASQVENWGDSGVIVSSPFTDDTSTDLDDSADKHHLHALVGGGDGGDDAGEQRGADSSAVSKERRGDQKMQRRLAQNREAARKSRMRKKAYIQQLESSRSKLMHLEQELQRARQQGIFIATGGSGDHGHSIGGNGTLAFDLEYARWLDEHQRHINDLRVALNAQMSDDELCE

Chains of the proteins cited; added tags and fusions are not shown.
UniProt Q6Q9I2: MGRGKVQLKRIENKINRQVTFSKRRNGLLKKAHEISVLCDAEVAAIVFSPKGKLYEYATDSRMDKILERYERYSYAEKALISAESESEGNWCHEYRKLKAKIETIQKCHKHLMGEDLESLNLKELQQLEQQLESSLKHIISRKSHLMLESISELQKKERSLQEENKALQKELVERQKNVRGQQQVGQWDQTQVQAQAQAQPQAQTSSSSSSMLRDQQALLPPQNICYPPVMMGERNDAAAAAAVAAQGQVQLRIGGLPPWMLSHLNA
UniProt Q10PZ9: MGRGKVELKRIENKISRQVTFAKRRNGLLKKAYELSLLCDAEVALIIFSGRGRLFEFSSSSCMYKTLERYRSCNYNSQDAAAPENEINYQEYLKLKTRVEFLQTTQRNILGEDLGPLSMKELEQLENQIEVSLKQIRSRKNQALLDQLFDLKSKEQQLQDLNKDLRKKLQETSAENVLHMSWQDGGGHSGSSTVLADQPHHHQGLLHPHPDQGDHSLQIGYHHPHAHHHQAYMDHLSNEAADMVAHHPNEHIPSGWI

T2: OsbZIP47ΔC (C-terminal truncated OsbZIP47 lacking 186-385 amino acids), Gal4 BD fusion (rice (Oryza sativa)) (UniProt Q5Z6N9)
T2 sequence: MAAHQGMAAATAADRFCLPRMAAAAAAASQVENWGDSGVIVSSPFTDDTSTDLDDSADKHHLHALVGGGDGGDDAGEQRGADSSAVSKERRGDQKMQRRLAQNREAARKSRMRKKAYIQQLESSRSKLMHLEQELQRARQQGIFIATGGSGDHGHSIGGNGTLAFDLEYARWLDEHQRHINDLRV


How the values were obtained:
[1] = target: T1, OsbZIP47ΔC-cYFP fusion protein (rice (Oryza sativa)); assay: split reporter; BiFC: cYFP and nYFP fusions transiently co-expressed in onion (Allium cepa) epidermal cells by Agrobacterium infiltration; 25°C in dark for 48 h; confocal detection of YFP
[2] = target: T2, OsbZIP47ΔC (C-terminal truncated OsbZIP47 lacking 186-385 amino acids), Gal4 BD fusion (rice (Oryza sativa)); assay: two-hybrid; Gal4 BD-OsbZIP47ΔC as bait (pGBDUC1), preys fused to GAL4 AD (pGADC1), yeast pJ69-4A; serial dilution spotting on SD/-Leu-Ura-His + 10 mM 3AT, growth after five days at 30°C; ONPG / X-gal quantitative assay
[3] = target: T2, OsbZIP47ΔC (C-terminal truncated OsbZIP47 lacking 186-385 amino acids), Gal4 BD fusion (rice (Oryza sativa)); assay: as above; remark: listed apart in the source

Row | Molecule | binding [1] | binding [3] | other results
1 | OsMADS15, GAL4 AD fusion (from UniProt Q6Q9I2 1-267) | – | – | binding [2]: binds weakly
2 | RICE FLORICULA/LEAFY (RFL), GAL4 AD fusion (protein, UniProt Q0JAI1 1-389) MDPNDAFSAAHPFRWDLGPPAPAPVPPPPPPPPPPPPANVPRELEELVAGYGVRMSTVARISELGFTASTLLAMTERELDDMMAALAGLFRWDLLLGERFGLRAALRAERGRLMSLGGRHHGHQSGSTVDGASQEVLSDEHDMAGSGGMGDDDNGRRMVTGKKQAKKGSAARKGKKARRKKVDDLRLDMQEDEMDCCDEDGGGGSESTESSAGGGGGERQREHPFVVTEPGEVARAKKNGLDYLFHLYEQCRLFLLQVQSMAKLHGHKSPTKVTNQVFRYAKKVGASYINKPKMRHYVHCYALHCLDEEASDALRRAYKARGENVGAWRQACYAPLVDISARHGFDIDAVFAAHPRLAIWYVPTRLRQLCHQARSSHAAAAAALPPPLF | – | binds | –
3 | RFL-nYFP (protein, UniProt Q0JAI1 1-389) MDPNDAFSAAHPFRWDLGPPAPAPVPPPPPPPPPPPPANVPRELEELVAGYGVRMSTVARISELGFTASTLLAMTERELDDMMAALAGLFRWDLLLGERFGLRAALRAERGRLMSLGGRHHGHQSGSTVDGASQEVLSDEHDMAGSGGMGDDDNGRRMVTGKKQAKKGSAARKGKKARRKKVDDLRLDMQEDEMDCCDEDGGGGSESTESSAGGGGGERQREHPFVVTEPGEVARAKKNGLDYLFHLYEQCRLFLLQVQSMAKLHGHKSPTKVTNQVFRYAKKVGASYINKPKMRHYVHCYALHCLDEEASDALRRAYKARGENVGAWRQACYAPLVDISARHGFDIDAVFAAHPRLAIWYVPTRLRQLCHQARSSHAAAAAALPPPLF | binds | – | –
4 | OsMADS2, GAL4 AD fusion (protein, UniProt Q40702 1-209) MGRGKIEIKRIENSTNRQVTFSKRRSGILKKAREISVLCDAEVGVVIFSSAGKLYDYCSPKTSLSRILEKYQTNSGKILWDEKHKSLSAEIDRIKKENDNMQIELRHLKGEDLNSLQPKELIMIEEALDNGIVNVNDKLMDHWERHVRTDKMLEDENKLLAFKLHQQDIALSGSMRDLELGYHPDRDFAAQMPITFRVQPSHPNLQENN | – | no binding | –

The next lines start with results.

Row | binding [1] | binding [3] | Molecule | other results
5 | binds | – | OsMADS1-nYFP (from UniProt Q10PZ9 1-257) | –
6 | – | binds weakly | OsH15, GAL4 AD fusion (protein, UniProt O80416 1-355) MDQSFGNLGGGGGAGGSGKAAASSFLQLPLSTAAAATAYYGTPLALHQAAAAAGPSQYHGHGHPHHGGGHHHSKHGGAGGGEISAAEAESIKAKIMAHPQYSALLAAYLDCQKVGAPPEVLERLTATAAKLDARPPGRHDARDPELDQFMEAYCNMLAKYREELTRPIDEAMEFLKRVESQLDTIAGGAHGGGAGSARLLLADGKSECVGSSEDDMDPSGRENEPPEIDPRAEDKELKFQLLKKYSGYLSSLRQEFSKKKKKGKLPKEARQKLLHWWELHYKWPYPSETEKIALAESTGLDQKQINNWFINQRKRHWKPSEDMPFVMMEGFHPQNAAALYMDGPFMADGMYRLGS | –
7 | – | binds | RICE HOMEOBOX1 (OSH1), GAL4 AD fusion (protein, UniProt P46609 1-361) MEEISHHFGVVGASGVHGGHQHQHHHHPWGSSLSAIVAPPPPPQLQQQQTQAGGMAHTPLTLNTAAAAVGNPVLQLANGSLLDACGKAKEASASASYAADVEAIKAKIISHPHYSSLLAAYLDCQKVGAPPEVAARLTAVAQDLELRQRTALGVLGAATEPELDQFMEAYHEMLVKYREELTRPLQEAMEFLRRVETQLNTLSISGRSLRNILSSGSSEEDQEGSGGETELPEIDAHGVDQELKHHLLKKYSGYLSSLKQELSKKKKKGKLPKDARQQLLNWWELHYKWPYPSESQKVALAESTGLDLKQINNWFINQRKRHWKPSDEMQFVMMDGYHPTNAAAFYMDGHFINDGGLYRLG | –
8 | binds | – | OSH1 nYFP (protein, UniProt P46609 1-361) MEEISHHFGVVGASGVHGGHQHQHHHHPWGSSLSAIVAPPPPPQLQQQQTQAGGMAHTPLTLNTAAAAVGNPVLQLANGSLLDACGKAKEASASASYAADVEAIKAKIISHPHYSSLLAAYLDCQKVGAPPEVAARLTAVAQDLELRQRTALGVLGAATEPELDQFMEAYHEMLVKYREELTRPLQEAMEFLRRVETQLNTLSISGRSLRNILSSGSSEEDQEGSGGETELPEIDAHGVDQELKHHLLKKYSGYLSSLKQELSKKKKKGKLPKDARQQLLNWWELHYKWPYPSESQKVALAESTGLDLKQINNWFINQRKRHWKPSDEMQFVMMDGYHPTNAAAFYMDGHFINDGGLYRLG | –

— article PMC9044032, “OsbZIP47 Is an Integrator for Meristem Regulators During Rice Plant Growth and Development” (Frontiers in Plant Science, 2022)
